# Values joined by “and” are separate entries in the source; they are usually repeats but may differ in a detail not shown here. Equal entries are not always repeated. The whole screen tested about 350,000 compounds, of which about 31,000 (8.9%) were called active. Inconclusive means that the source gave no clear call. Such entries were picked first, then a sample of the others. Calls come from the whole dose curve; as a rule, active = well fitted inhibition curve with a large enough effect; inconclusive = small, poorly fitted or top-dose-only effect; inactive = no such curve, though single readings can be large or run the other way. A potency beside an inconclusive call is a rough fit, not a confirmed value.
# Target: Histone-lysine N-methyltransferase EHMT2 (Homo sapiens) (UniProt Q96KQ7)
# Assay: qHTS Assay for Inhibitors of Histone Lysine Methyltransferase G9a; note: nearly all actives have a fitted effect of over 75% in size
# Conditions: G9a H3K9 monomethylation, AlphaScreen, 2 h; activity, negative = inhibition: at 59 µM (top of the series) unless noted
# Method in brief: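 AlphaScreen read-out: biotin-H3K9 peptide (500 nM) methylation by 20 nM enzyme with 20 uM SAM, 2 h at room temperature after 15 min compound preincubation; anti-monomethyl H3K9 antibody plus donor/acceptor beads, 10 min dark.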
# % is set by controls: 0 for no effect and ±100 for the full control effect; potency is the fitted concentration of half-maximal effect; tags give direction and shape of the fitted curve.
# UniProt Q96KQ7, sequence (Q96KQ7 whole entry, looked up): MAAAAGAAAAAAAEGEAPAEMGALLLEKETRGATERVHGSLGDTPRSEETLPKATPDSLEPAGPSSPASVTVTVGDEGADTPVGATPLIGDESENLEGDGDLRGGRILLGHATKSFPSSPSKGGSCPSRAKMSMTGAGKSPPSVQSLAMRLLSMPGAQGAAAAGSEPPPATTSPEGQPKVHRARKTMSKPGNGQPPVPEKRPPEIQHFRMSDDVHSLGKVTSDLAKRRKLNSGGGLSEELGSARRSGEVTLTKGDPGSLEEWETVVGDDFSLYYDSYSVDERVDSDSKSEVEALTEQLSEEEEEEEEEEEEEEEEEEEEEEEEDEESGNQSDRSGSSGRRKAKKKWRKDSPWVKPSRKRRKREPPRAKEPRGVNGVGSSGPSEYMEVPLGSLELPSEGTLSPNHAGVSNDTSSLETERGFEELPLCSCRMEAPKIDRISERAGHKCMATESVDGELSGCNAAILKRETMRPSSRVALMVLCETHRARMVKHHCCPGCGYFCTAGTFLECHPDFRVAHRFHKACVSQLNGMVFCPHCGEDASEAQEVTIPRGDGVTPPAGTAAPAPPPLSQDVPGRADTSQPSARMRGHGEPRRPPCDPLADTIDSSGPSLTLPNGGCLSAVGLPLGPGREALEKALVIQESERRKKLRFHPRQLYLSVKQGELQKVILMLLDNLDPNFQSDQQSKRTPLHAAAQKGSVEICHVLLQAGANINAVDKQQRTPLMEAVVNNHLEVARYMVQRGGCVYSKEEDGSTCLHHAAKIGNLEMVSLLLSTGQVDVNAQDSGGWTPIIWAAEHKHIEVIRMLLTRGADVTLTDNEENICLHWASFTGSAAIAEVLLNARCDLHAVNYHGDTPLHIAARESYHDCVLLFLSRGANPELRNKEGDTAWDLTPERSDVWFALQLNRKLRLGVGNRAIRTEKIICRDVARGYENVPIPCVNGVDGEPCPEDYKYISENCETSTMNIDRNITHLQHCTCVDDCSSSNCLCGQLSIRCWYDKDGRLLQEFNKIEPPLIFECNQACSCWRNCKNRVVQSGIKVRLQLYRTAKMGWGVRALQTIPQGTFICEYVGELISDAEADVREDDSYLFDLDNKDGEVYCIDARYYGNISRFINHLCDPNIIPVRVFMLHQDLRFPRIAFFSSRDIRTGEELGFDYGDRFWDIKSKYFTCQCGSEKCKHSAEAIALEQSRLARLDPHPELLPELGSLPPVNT
SMILES,Potency,"activity, negative = inhibition"
CNC(=O)C1C2C=CC3(O2)C1C(=O)N(CCOC)C3C(=O)NCc1ccc(OC)cc1 (stereo unspecified),"inconclusive: 79.4 µM [inhibitor, single point]",
O=c1c(/C=N\NS(=O)(=O)c2ccccc2)coc2ccc(Cl)cc12,"inconclusive: 79.4 µM [inhibitor, partial curve, poor fit]",
COc1ccc2c(c1)c1nnc(SCC(=O)N3C(C)CCCC3C)nc1n2C (stereo unspecified),"inconclusive: 79.4 µM [inhibitor, single point]",
CCOC(=O)c1c(CN2CCCCC2)n(C)c2cc(Br)c(O)c(CN(C)C)c12,active: 35.5 µM,
COc1ccccc1C(=O)COC(=O)Cc1c[nH]c2ccccc12,"inconclusive: 79.4 µM [inhibitor, single point]",
COc1cccc(NC(=O)c2c(C)cc(C)cc2CC(C)(C)C(=O)O)c1,inactive,
COc1cccc(Cn2c(=O)c(-c3ccc(Cl)cc3)nc3cnc(N4CCNCC4)nc32)c1,,inactive: 3.98% [at 0.501 µM]
CN(C)CCN(Cc1ccco1)C(=O)c1oc2ccccc2c1NC(=O)c1ccccc1,"inconclusive: 25.1 µM [inhibitor, partial curve, poor fit]",
CC(C)c1[nH]nc2c1C(c1cccnc1)C(C#N)=C(N)O2 (stereo unspecified),"inconclusive: 79.4 µM [inhibitor, partial curve, poor fit]",
CCCCCCCCCCOC(=O)Cn1c(COc2ccc(Cl)cc2)[n+](C)c2ccccc21,"inconclusive: 79.4 µM [inhibitor, single point]",
Cc1cccnc1NC(=S)Nc1ccc(Cl)c(Cl)c1,inactive,
CC1=C(C(=O)Nc2ccccc2)C(c2cccs2)n2nc(SCc3ccccc3F)nc2N1 (stereo unspecified),inactive,
Cc1nc2c(cc1C(=O)N/N=C/c1ccc(O)c(O)c1)c(=O)n(C)c(=O)n2C,"inconclusive: 6.31 µM [inhibitor, single point]",
C/C(=C\C(=O)O)C12CC3CC(CC(C3)C1)C2,"inconclusive: 0.141 µM [inhibitor, full curve, poor fit]",
Cc1ccc(OCC(=O)c2cc(C)n(Cc3ccco3)c2C)c([N+](=O)[O-])n1,,inconclusive: -75.9% [inhibitor]
CCN(CC)c1ccc(C=Nc2ccccc2)c(O)c1,"inconclusive: 39.8 µM [inhibitor, single point]",
S=C(c1ccc(-c2ccc(Cl)cc2)o1)N1CCCCC1,active: 12.6 µM,
COc1ccc(CCCc2nnc(SCC(=O)Nc3ccc(OC)cc3)o2)cc1,"inconclusive: 3.98 µM [inhibitor, partial curve, poor fit] and inconclusive: 15.8 µM [inhibitor, partial curve]",
COc1ccc(OC)c2[nH]c(=O)c(CCNC(=O)C(C)C)cc12,"inconclusive: 35.5 µM [inhibitor, partial curve, poor fit]",
O=C(NC(C(=O)N/N=C/c1cc([N+](=O)[O-])ccc1O)c1n[nH]c(=O)c2ccccc12)c1ccccc1 (stereo unspecified),"inconclusive: 79.4 µM [inhibitor, partial curve, poor fit]",
CN(/N=C/c1cc(Br)cc(Br)c1O)c1ccccc1,"inconclusive: 14.1 µM [inhibitor, partial curve, poor fit]",

SMILES,Potency,"activity, negative = inhibition"
COc1ccc(C(c2c(C)[nH]n(-c3ccccc3)c2=O)c2c(C)[nH]n(-c3ccccc3)c2=O)cc1OC,"inconclusive: 20 µM [inhibitor, single point]",
COc1ccc(-n2nnnc2S(=O)(=O)CC(=O)N2CCCCC2)cc1,"inconclusive: 100 µM [inhibitor, single point]",
COc1ccc(-c2oc(NC(C)=O)c(C#N)c2-c2ccc(OC)cc2)cc1,"inconclusive: 89.1 µM [inhibitor, single point]",
CCNC(=O)NCCc1c[nH]c2ccc(Cl)cc12,"inconclusive: 89.1 µM [inhibitor, partial curve, poor fit]",
Fc1ccc(-c2csc3ncnc(Nc4ccc(N5CCOCC5)cc4)c23)cc1,,inactive: 31.9% [at 0.501 µM]
Cn1c(-c2ccc(F)cc2)cnc1NCc1ccccc1,active: 20 µM,
CCN1C(=O)[C@H]2[C@@H](c3ccc(Cl)cc3)N3C(=O)CN(CC4CC4)C(=O)[C@@]3(Cc3ccccc3)[C@H]2C1=O,active: 70.8 µM,
COc1ccc(C2CC(O)(c3ccccc3)Oc3cc(OC)ccc32)cc1 (stereo unspecified),,inconclusive: -70.6% [inhibitor]
CC(C)c1ccc(CNc2ccc(N3CCOCC3)cc2)cc1,"inconclusive: 1.26 µM [inhibitor, partial curve, poor fit]",
CCCc1nn2c(=O)cc(COC(=O)c3ccccc3NC(=O)c3ccc(Cl)cc3)nc2s1,inactive,
COc1ccc(C(=O)N2CCN(C(=O)C3COc4ccccc4O3)CC2)cc1OC (stereo unspecified),"inconclusive: 79.4 µM [inhibitor, single point]",
CCc1ccccc1Nc1cc(C(=O)NC(C)c2ccccc2)c2ccccc2n1 (stereo unspecified),inactive,
CCOc1ccccc1N1CCN(Cc2ccc(OC)c(OC)c2OC)CC1,"inconclusive: 25.1 µM [inhibitor, single point]",
COCCNC(=O)c1cc(S(=O)(=O)N(C)c2ccccc2OC)ccc1C,active: 28.2 µM,
COc1ccc(CCNC(=O)c2ccc(OC)c(OC)c2)cc1OC,"inconclusive: 39.8 µM [inhibitor, single point]",
COc1cc(C(C)=O)ccc1OCC(O)CNCC1(N2CCCCC2)CCCCC1 (stereo unspecified),active: 28.2 µM,
Cc1cc(NC(=O)CC(C)C)c(=O)n(Cc2cccc(F)c2)c1,"inconclusive: 89.1 µM [inhibitor, single point]",
O=C(O)CCC(=O)N(Cc1ccco1)c1nc(-c2ccccc2)cs1,"inconclusive: 44.7 µM [inhibitor, partial curve]",
O=C(NCc1ccccc1)C1CCN(S(=O)(=O)c2cc([N+](=O)[O-])ccc2Cl)CC1,inactive,
COCCOc1ccc(C(F)(F)F)cc1NC(=O)c1ccc(F)cc1,"inconclusive: 0.708 µM [inhibitor, full curve, poor fit]",
